We go through one protein from PMC9054915.

Substrate in the data set: CC(C)NC[C@@H](C(=O)N1CCN(c2ncnc3c2[C@H](C)C[C@H]3O)CC1)c1ccc(Cl)cc1
The data set is described as follows: In vitro CYP3A4 enzyme kinetics (Km). It is filed as in vitro ADME. Particulars: other: in vitro.

B1: CYP3A4 (Homo sapiens) (protein)
chain: MALIPDLAMETWLLLAVSLVLLYLYGTHSHGLFKKLGIPGPTPLPFLGNILSYHKGFCMFDMECHKKYGKVWGFYDGQQPVLAITDPDMIKTVLVKECYSVFTNRRPFGPVGFMKSAISIAEDEEWKRLRSLLSPTFTSGKLKEMVPIIAQYGDVLVRNLRREAETGKPVTLKDVFGAYSMDVITSTSFGVNIDSLNNPQDPFVENTKKLLRFDFLDPFFLSITVFPFLIPILEVLNICVFPREVTNFLRKSVKRMKESRLEDTQKHRVDFLQLMIDSQNSKETESHKALSDLELVAQSIIFIFAGYETTSSVLSFIMYELATHPDVQQKLQEEIDAVLPNKAPPTYDTVLQMEYLDMVVNETLRLFPIAMRLERVCKKDVEINGMFIPKGVVVMIPSYALHRDPKYWTEPEKFLPERFSKKNKDNIDPYIYTPFGSGPRNCIGMRFALMNMKLALIRVLQNFSFKPCKETQIPLKLSLGGLLQPEKPVVLKVESRDGTVSGA
A word on the Km: it is the concentration of substrate that gives half-maximal velocity. As to B1, the Michaelis constant (Km) stood at 19.47 µM.
